Data on 25 sequences can be found in the supplement of paper PMC11417369.

± gives the standard deviation of the averaged measurements. The list shows a part of the results.

The subject of this experiment is PfAP2-EXP AP2 domain (GST-tagged). In words: gcPBM binding intensity (ln(normalized median fluorescence intensity)); higher = stronger DNA binding. The procedure, abridged:
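Binding intensity is the highest Masliner-normalised natural-log median intensity over replicate spots in either probe orientation. To obtain it, GST-tagged P. falciparum DNA-binding domains made in E. coli were incubated for 1 h on an Agilent 4 × 180k array of primer-extended double-stranded 36-bp intergenic genomic probes plus negative controls. Detection used Alexa488 anti-GST antibody with scanning at 488 nm.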
Turning to “AACATAATATCATATACACACAAAAATATTGAAATA [CACACA_site2160]”, the “gcPBM binding intensity (ln)” value worked out at 8.62 ± 0.33.

Regarding “ATAATACCCATTATCTTACAACAAAATGCAAACAAA [CACACA_negctrl_site1037]”, the “gcPBM binding intensity (ln)” value amounted to 8.57 ± 0.49.

As to “AAAATTAGATTATGCACACACACTTAAAAATAATAA [CACACA_site1975]”, the “gcPBM binding intensity (ln)” value is 8.56 ± 0.28.

For “AAGAACATATTATATACATGCATAATTCGATAGATT [TGCATGCA_site882]”, the “gcPBM binding intensity (ln)” value was found to be 8.84 ± 0.23.

Regarding “TAATTATAATAATAACGTACATATATAAAATGGTGA [XGTACX_site8434]”, the “gcPBM binding intensity (ln)” value was determined as 8.82 ± 0.4.

“TTAAAATATGTAGCTACACACACATAAACAAAATAA [CACACA_site8244]”: the “gcPBM binding intensity (ln)” value turned out to be 8.66 ± 0.44.

In the case of “TTTTTTTTTCTGAATTTATAATTCAAAAATATATAT [CACACA_negctrl_site300]”, the “gcPBM binding intensity (ln)” value was found to be 8.17 ± 0.38.

Consider “TGTAGTCTGGAGAAAAGTACACAGTATCTGGTAGCT [XGTACX_site2012]”, for which the “gcPBM binding intensity (ln)” value is 8.47 ± 0.33.

Consider TATATATATATATAGGTGCTATAATTTATATACACA, for which the “gcPBM binding intensity (ln)” value came out at 10.1 ± 0.31.

As to “TTTTATTTTTTCTATACATGCATGTCCAATTTTCTT [TGCATGCA_site304]”, the “gcPBM binding intensity (ln)” value was 9.85 ± 0.68.

For “TTATGGTATAAAAAAATACACACTTATATATATTCT [CACACA_site488]”, the “gcPBM binding intensity (ln)” value was 8.23 ± 0.4.

Regarding “AAAAAAAAAAAAAACACACATACACGCCCACCCATA [CACACA_site3391]”, the “gcPBM binding intensity (ln)” value was determined as 9.19 ± 0.6.

As to “GTTTTTTTATAAAATTTTTATATAATTCTTTTATAA [CACACA_negctrl_site1605]”, the “gcPBM binding intensity (ln)” value was 8.46 ± 0.36.

With “ATATATAAGAACATATATATTGGAAATATTGAATTT [XGTACX_negctrl_site121]”, the “gcPBM binding intensity (ln)” value turned out to be 8.2 ± 0.54.

Take “TAATAATAAAAAATACGTACATATTATTTATATATG [XGTACX_site853]”: the “gcPBM binding intensity (ln)” value was 8.44 ± 0.17.

Take “CATTTTATTCTATATGCATGTTAAAAAATGTGTTGA [TGCATGCA_site128]”: the “gcPBM binding intensity (ln)” value is 8.6 ± 0.26.

With “AATAAAAATATTATATGTACATATTTTAATATATAT [XGTACX_site1259]”, the “gcPBM binding intensity (ln)” value came to 8.35 ± 0.24.

On to “AAAAAAAAAAAGATAAATACAAGTTACACAAAAAAA [GTGCAC_negctrl_site664]”, for which the “gcPBM binding intensity (ln)” value amounted to 8.37 ± 0.61.

For the sequence ACGTTGCGACGCAAGGTGCTTATTTTCTTATAAATA, the “gcPBM binding intensity (ln)” value turned out to be 8.23 ± 0.23.

On to “AACAAATTTTTTATTAAACACACAAACATATATATA [CACACA_site8588]”, for which the “gcPBM binding intensity (ln)” value worked out at 8.62 ± 0.29.

For “TGTGAATATATCTTTAAAAAGGATAAATAATAATTT [CACACA_negctrl_site507]”, the “gcPBM binding intensity (ln)” value stood at 8.21 ± 0.36.

Regarding “GCTCATTGAAATTATACACACCAAATATATAAATAT [CACACA_site5385]”, the “gcPBM binding intensity (ln)” value was 8.49 ± 0.3.

On to “TATGAATATTGCATGTGTACCTATTATCCTTTTAAA [XGTACX_site4311]”, for which the “gcPBM binding intensity (ln)” value turned out to be 9.11 ± 0.37.

With “ATAATTATTTTCCCGTGTACTTATTTTTTTCAAGTA [XGTACX_site8843]”, the “gcPBM binding intensity (ln)” value is 9.05 ± 0.45.

As to “ATATAAAATAAAAAAAAAAAAAAAAAAAAAAAAAAA [CACACA_negctrl_site1234]”, the “gcPBM binding intensity (ln)” value worked out at 8.06 ± 0.3.
